# Whole data set: some 33,000 sequences, median “E-score (-0.5 to 0.5)” near -0.011, cut for the highest 2% near 0.28. Some of the results follow.
# Molecular target: T1, Gcr1 (UniProt P07261)
# T1 sequence: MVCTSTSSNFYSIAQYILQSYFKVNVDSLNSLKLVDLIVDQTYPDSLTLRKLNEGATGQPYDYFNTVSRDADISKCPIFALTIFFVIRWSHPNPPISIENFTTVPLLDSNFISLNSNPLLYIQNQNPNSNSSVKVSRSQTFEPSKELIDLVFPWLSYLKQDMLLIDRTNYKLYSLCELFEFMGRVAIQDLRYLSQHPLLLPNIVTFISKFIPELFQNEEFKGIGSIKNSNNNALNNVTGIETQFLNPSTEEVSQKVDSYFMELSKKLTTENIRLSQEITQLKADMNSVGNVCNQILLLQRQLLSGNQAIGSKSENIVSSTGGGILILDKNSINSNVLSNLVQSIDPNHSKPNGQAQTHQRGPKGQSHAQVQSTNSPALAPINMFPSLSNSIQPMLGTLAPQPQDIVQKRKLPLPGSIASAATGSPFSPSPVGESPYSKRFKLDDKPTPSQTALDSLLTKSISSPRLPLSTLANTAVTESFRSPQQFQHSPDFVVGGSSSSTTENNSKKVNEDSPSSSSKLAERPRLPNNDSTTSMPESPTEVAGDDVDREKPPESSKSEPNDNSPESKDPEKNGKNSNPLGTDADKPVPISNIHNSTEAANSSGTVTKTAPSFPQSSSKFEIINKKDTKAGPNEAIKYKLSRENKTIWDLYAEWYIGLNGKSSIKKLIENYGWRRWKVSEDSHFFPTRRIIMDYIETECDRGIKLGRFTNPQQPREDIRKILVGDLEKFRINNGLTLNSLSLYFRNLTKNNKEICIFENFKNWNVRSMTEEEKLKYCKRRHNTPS
# Experiment: PBM E-score (8-mer binding enrichment) (E-score (-0.5 to 0.5)); higher = stronger / more preferred TF binding; most listed sequences are background and not binding sites
# Conditions: protein concentration: 100 nM; construct: GST-full length
# In short: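 Using PURExpress in vitro transcription/translation, GST-tagged yeast transcription factors were made in full-length or DNA-binding-domain form. These were applied at about 100-200 nM to double-stranded universal all-10-mer Agilent arrays, and bound protein was detected with fluorescent anti-GST. Scans were normalised with masliner before the Universal PBM Analysis Suite assigned E-scores to ungapped eight-base words pooled with their reverse complements.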
row,Sequence,PBM E-score
1,CTTGATTC,0.133
2,ACCCAACA,0.119
3,CCGGATGC,0.4
4,ATACTCTG,-0.141
5,ATAGTTGA,-0.0782
6,AAGGAGAA,0.279
7,AGAGCTAA,-0.219
8,ACGAAGAG,0.0429
9,AGATCATC,-0.0834
10,CAGGCAGC,0.285
11,ACGCTACT,0.0916
12,ATTTATAA,0.124
13,CTAGTAAG,-0.0342
14,CTTGAGTA,-0.0746
15,ACAGAAGG,-0.0795
16,ATCTAATC,0.0385
17,CATATTGC,-0.0878
18,CATCGGCC,-0.274
19,AGGTAGCC,0.238
20,GAAGCAGC,0.24
21,CATGATGG,-0.0335
22,ACAGCCTG,-0.19
23,CGGCACAC,-0.134
24,TATCTAGA,0.142
25,CTGGCAAC,0.17

row,Sequence,PBM E-score
1,AGTCAGAA,0.0882
2,ATAGATCA,0.00234
3,AGTTAGAC,-0.0255
4,GGTAGCAA,0.0758
5,ATGCAAGC,-0.0754
6,ATAACACA,0.0102
7,ATTGTTGA,-0.0275
8,AAGTAGTG,0.0424
9,GGGCGGAA,-0.127
10,CCTAGGAG,-0.0611
11,TAATAGTA,0.193
12,ATCGGAAG,0.193
13,GTTTATTA,0.176
14,GTCCTCCA,0.0446
15,ACATCCAA,0.186
16,AACGGACT,-0.231
17,ACGGCACA,-0.148
18,ACCAAGCG,-0.0948
19,GTCGGCCA,-0.0681
20,CCCTAAAA,0.101
21,GGATGAAC,-0.232
22,CCGATCAA,-0.0605
23,CTAGCGCA,-0.202
24,CTCGGGAA,0.104
25,AGTAACAC,-0.172

row,Sequence,PBM E-score
1,ATGGGACC,0.0745
2,CCAATTAG,0.131
3,TACATGTA,0.18
4,CCCCCCAC,-0.0948
5,CCAGACTA,-0.0971
6,CTCAGTGC,-0.0638
7,CGGGTACG,-0.0171
8,CTTAGCCA,-0.062
9,CATAACTA,-0.103
10,GAGGAGAA,0.0667
11,CAGGGAGC,0.165
12,CACATTTC,0.0972
13,GGTGCCTA,0.134
14,CAATACAA,0.139
15,AAAAGATT,0.0313
16,CAGAGCTA,-0.204
17,CGCACAAG,-0.0834
18,ACAGATGC,0.0196
19,AGTGACTA,-0.0431
20,AACAAACC,-0.28
21,AACCGACT,-0.0108
22,CGACTGCA,-0.0389
23,CATCTCCC,-0.0806
24,CTCACCCC,-0.117
25,CGCCGCGA,0.0448

row,Sequence,PBM E-score
1,GTTAACTA,0.00411
2,CGTCCCAA,-0.0449
3,CCTCATAC,-0.0756
4,TCAGTAAA,-0.0235
5,CTCAAGAC,-0.0606
6,ACCTATAG,0.161
7,AGGCCATG,-0.179
8,GCAAAAAC,0.0812
9,GTTGAAAA,0.0974
10,AAGGCGAG,-0.0782
11,CAGTTCAG,-0.125
12,AAAATTAC,-0.0115
13,ATGAAAAT,0.033
14,TAAGAGGA,0.0364
15,ATGGCCAC,-0.138
16,CTGTAAGA,0.0348
17,CCGTCTAA,0.0045
18,CTGAAGAA,0.0978
19,CTCACCAC,-0.18
20,TAACCTAA,0.167
21,AACCGGTA,0.201
22,ACCGTGTA,-0.163
23,TAAGCTGA,-0.144
24,CAATCCAC,0.0517
25,GTATGCAA,0.0117

row,Sequence,PBM E-score
1,GAATTGGC,-0.0622
2,ATAAACAT,0.064
3,AGCTTTAG,-0.159
4,CCTTGGGC,-0.201
5,CTCTAGAA,0.0655
6,GGGAGAGA,-0.166
7,ATCGAATA,-0.089
8,AGCTGCCT,0.32
9,CCACCAGA,0.0834
10,TAAATTCA,-0.0731
11,GTACATCA,-0.0283
12,TCATATAA,0.125
13,GCGTGTAA,0.196
14,CGCCCTAC,-0.0181
15,AACAACTC,-0.00268
16,CGACGTAC,-0.0854
17,CGTAGACG,-0.0412
18,GTCGAAGA,-0.0273
19,ACGGTCCG,-0.105
20,GGGCACAA,-0.0282
21,CCAGATCC,0.185
22,GGCAAACA,-0.14
23,CGTGCAAA,-0.183
24,GAGAGTGC,-0.155
25,ACGTCGAG,-0.215

row,Sequence,PBM E-score
1,GAACGTGC,-0.137
2,CCCATTAG,-0.0149
3,ATATGAGA,0.143
4,ACTAATTG,0.0974
5,ACCGCAAG,-0.0529
6,CTTTGTCA,-0.0504
7,GCCCCAAA,0.0887
8,GGCAGACA,-0.0708
9,TCGCTTCA,0.00199
10,ATAACGTC,0.0192
11,GCTTGAAA,-0.0704
12,GCGCTTCC,0.348
13,CGACCTAG,-0.0399
14,AATACACC,0.0929
15,AGACTTCC,5e-05
16,AGGAATGG,0.0654
17,GATCATAC,-0.0831
18,ATTCTACC,-0.0245
19,GATGACCA,0.0452
20,CACATATC,-0.0664
21,ATCTGAGA,0.0934
22,CAAAATAA,0.183
23,ACGTCCTC,-0.112
24,AGATACGC,0.15
25,ACATGTGA,-0.0765

row,Sequence,PBM E-score
1,CAGGGTGG,0.00462
2,CTGTTGAC,-0.0113
3,ACTTTATA,0.234
4,ATACAAGC,0.0736
5,CGACTGGC,-0.241
6,TACGGATA,0.06
7,GCTCGGTA,-0.0759
8,AGCATAAC,-0.0523
9,GTCAGGGA,-0.122
10,ATGTTCGA,-0.00159
11,ATTGACTC,0.0405
12,CGCAACGC,0.104
13,GCGCACAC,-0.128
14,CAGATTTC,-0.107
15,GGGGATAC,0.0984
16,CAAGTCAC,-0.0286
17,GAGCACCC,0.329
18,ACAGTTTA,0.122
19,AGTCAAAG,-0.229
20,ACGCACAA,-0.129
21,AATGAAGG,-0.12
22,GACTGCCA,0.0609
23,GCCGCCCA,0.0396
24,ACGTGCCC,0.0348
25,GGCTTTCA,-0.109

row,Sequence,PBM E-score
1,CGTTGGAG,-0.106
2,GTTTCACA,0.0174
3,CGGATTAC,-0.0413
4,CACGCCTA,-0.094
5,CCTAGAGC,0.0413
6,ATGAAAGC,-0.00357
7,AGGCACGA,-0.0558
8,CAGAGAAC,-0.0834
9,TTAGGGAA,0.205
10,TCTCTACA,-0.12
11,GCGGTCCC,-0.0174
12,AACAAACG,0.0298
13,AGTCTGGA,-0.0476
14,CCTCGATA,0.0184
15,AATCAGAA,0.181
16,GGACTGAC,-0.287
17,ATCTCCAT,-0.101
18,AATTTGAG,0.137
19,ATTTATTA,0.0873
20,TTTGAAAA,0.0876
21,ACAAGCTC,-0.215
22,CGAAGGAC,-0.0446
23,CACTGTCG,-0.166
24,GGCCAGCC,-0.296
25,GACTAGTA,0.113

row,Sequence,PBM E-score
1,ACCCCCCG,-0.111
2,ACTATTTC,0.104
3,GATATCAC,-0.0191
4,CGTTGCAC,-0.121
5,ACAGTTCG,-0.125
6,AATTCGAC,-0.176
7,CGCACCGA,-0.244
8,CCGTTTCG,-0.0553
9,CCACTGAC,-0.0793
10,TGGACAAA,0.0886
11,CCTGTAGC,0.19
12,CTCTGGGC,0.0201
13,GCCTTAAC,-0.219
14,ACCCTACC,-0.183
15,TACGATGA,-0.125
16,AGAGCGTA,-0.19
17,CTTGTGCA,0.0382
18,ATCGAGAG,0.0256
19,AGTGAGCA,-0.188
